The full ranking holds about 1,800 sequences; the median of “median log2 fold change of GCK-ALFA target abundance (FLAG IP / Myc IP barcode read proportion)” is about 0.14, and the lowest 2% start at about -0.84. The list shows a part of the results.
B1: traf2_out_12_187_966 (protein)
chain: SVQDELIAAANAALKAALKALEKEAPKRERFKEFLERLKEVAELLKKHPEVAADAAVAASLVLRAVRLFEEGLPEEEIERAAEEAEEELEELLEELKALE
B2: traf2_out_11_169_801 (protein)
chain: EEKEKNRKINDKALELNDKAKEELLKHALKLAKEAGLDEAEVKAIYEKHKNHSLSAVASALIDYFRSKGAEEEAAAVEEKYDELKEKINKEMTAFIKELE
B3: traf2_out_20_154_1996 (protein)
chain: PTDEEIDAVSDELVDASAKRRAALVAIEMLRNPERAAEILAAARAHYANDAVFQAALAEEEARIAAGATLEEFEALAEEYAKKAQELGDKLEELLEKRRK
B4: traf2_out_11_155_710 (protein)
chain: EEKLKINQELVDKVQEIADEALAELNKLIDEVAKEDPEVAAQLRAVLDASKDAGITTKLRLAIAVLKAAGREEEAAKVEKILEDYQKKANEIAKEAEEKL
B5: traf2_out_11_155_708 (protein)
chain: EEKLKLYQELVDANMAVADEALARLEALIDEVAARDPAVAAELRAVLEANRDAGYRTKLLLAERVLRAAGYEEEAARVEAILEEAQRRMNEIAKKTEEKL
B6: traf2_out_6_166_2471 (protein)
chain: EEELLERIKEIAKELGKYDPEIVIEAFERLAAERDDATATLARQLASGVRQAQKAGLDVTTIITAFAEGQLALGVPVETILALFEEVLKIAKELEEEKKK
B7: traf2_out_20_3_2095 (protein)
chain: EELEKELEKALKEAAKLIKKAIALADPETAARLEALLKRLKAAEKLPLEDRLVALSAVRRELLALAEEARAAGREELAKLLEEAAEEVNRAMNLAYKIIE
B8: traf2_out_19_16_1978 (protein)
chain: KKEELEKLKKELEKIKKEVKKLEKEFEENKDKLTREELSDLLVKVSELKRKAQEILQKLEELKDYDPEEVEKLKKEAEKVIEEAQKLANKIVDRYEELLK
B9: traf2_out_13_95_1106 (protein)
chain: SAETAEKIMEIADEMLDKVEELLEKLLEIAKKKGKLEEEIQEALHLARYRSINEAIHLLKELAKKYPEFKEELEETIEKIEELIREAGRKVAEILKEEKE
B10: traf2_out_13_95_1191 (protein)
chain: EEEKRKKYAERTNAIADELLDHADAKIAELEAATGDPELGAELRRVLDRGGVSALIHRIRELAKEDPAYREAYEAAAAELEAKRREAGRRVAEAEKEIEA
B11: traf2_out_17_162_1488 (protein)
chain: SELKARLEELKKRLEELEKKLKELEEKLKNLEKLSKEELTDLLVEVSELKREALELAEELKKLQKETGDPELKTLIERAEKLAEEAQRIANKIYKELEKK
B12: traf2_out_11_155_703 (protein)
chain: EEKKKLNNELVDKMIEIEEKLKEEVLKIIEAAAAAHPEHAAELAAVVEESKPFSGTDFARLAARKFEELGLEEEAAKVKALLEKAQKEKNKIYKEIEEKI
B13: traf2_out_11_155_694 (protein)
chain: EKKKELNNELVDKNMEIADKAKEELAKIAAAAAAAHPEHAAAIAALLAESSRFSATTFAGQLAALFRELGLEEYAAEVEKLREKAQKERNKVYKEIEAKI
B14: traf2_out_17_178_1675 (protein)
chain: DKEKWRAKISELTDKLIDLTEKTGRELLALAEKEGALSPEELALLRAALRSGSANTFLAVAKRIAPKLPSAEEAQALLDEFEKEKRKLSKEIAEAYEKYE
B15: traf2_out_20_3_2129 (protein)
chain: KELEEEAKKELEKAIKLLKEAAKLASPEKAKELEELAKELKESEKLSPSDRLVKVSEIRRKVRAMALEAKAAGDEKLAAVLEKAAEALNRLAQLLYKIIQ
B16: traf2_out_17_162_1588 (protein)
chain: GELEKKKEELEKKLEELEKKKKELEKKLEKIDELSKEELTDLLVEASEAKREALELLEEIKSLKDLLPEEEYEKLSKKAEELAEKFQKIANKFYKKLEEK
B17: traf2_out_16_104_1419 (protein)
chain: SAEDQAKFDALIKEAEEIAEELGRLANELYQKLLTASPEEKEKLSDALVKASEARREALELAEEIEKAKAAGGDLKEAEAKLEKLKAKAEEVKKEAEKLF
B18: traf2_out_19_164_1962 (protein)
chain: MSPEEIRREELERAEELAPRSRAENLVATVLELSAAGRDEEALATLRAALDHLARILEKEEFLRTLDIAIALVDERAAELPPELAAAVRALLEEARARAR
B19: traf2_out_11_169_830 (protein)
chain: EEAEKNRKINDFALELEEKAKEEFKKFVLELAKEEGLDVEEIKKIFEENKNKSLSAIAAAVIEYFKSKGKEEAAEKVLKKYEELKEKINKEATEKIKELE
B20: traf2_out_11_155_680 (protein)
chain: AKKQELNNELVDKTTAINDKLKAEVTAIAEKAAAAKPEKAAEIKAVLEASKPFSGRTFAGNMAATFKKLGLEEAAKEVEELLEKAQKEMNKVVKEIEAKL
B21: traf2_out_11_155_761 (protein)
chain: SEKLALEQEFTDKVTELADKIEAKIEEIIKKLEKEDPEVAKKVRELLEKHRDASARSKALLAAELLKKEGYEELAKELLDEVEKAQKEANKLAKEMEEKK
B22: traf2_out_11_169_806 (protein)
chain: KEAEKNREINDFALELNDEAVKKLKEEALKLAKEAGLDPEEVEAIFEKHKGKSLSAVAAALIKYFKEKGAEEAAERVLKLHEELQEEINKKMTKKIKELE
B23: traf2_out_10_21_631 (protein)
chain: DAARRYLERALEIAKSGEDDRSLIAALLTNAYVAIAGLVISDNAEAYKRLASEILKFLSSMSHEEVVAYLTEMVENFEEFKKEAKEKMAKVVAEVEAKKK
B24: traf2_out_20_3_2135 (protein)
chain: SELEEELEKALEEAIKLLKEAAKLADPETAKELEKLIEELKKSKELPLTDRLVKLSEIRRRVLEMAEAAKKAGKEELAAVLEEAADAINKAMNLLMKLIE
B25: traf2_out_13_95_1105 (protein)
chain: SAETAEKIMEVADEMLEKSEKLLEELLKIAKEKGKLVEEVQEALDLARYRSINEAIHKLKELAKKYPEFKEEFEATIKELEELKREAGRKVAEILKEEKE
B26: traf2_out_20_38_2028 (protein)
chain: SEEEEEKKRLEELIKVANEAYDKAEKKIAKLKAEGKTIEEIAEEAKEEVERILSEVGLEEEREELIEDIDRVLDSPDAERLIARILARAVALAYQKELQK
B27: traf2_out_17_162_1497 (protein)
chain: AETEERLRELEEELRELEEELEKLREKLPDLPKMSKEELTDLLVEVSELKRRARLLAEELRRLAEETGSPRAEELLRRAEELAEEAQRIANEIYKELEAK
B28: traf2_out_16_104_1418 (protein)
chain: SAAADAEFDALIAEAEAIADELGKLANELYKMLEKASPADKEKLSDQLVAASEARRAALALAEELRRARAAGGDLAAARAALAKLKADAAAVKAAAAALK
B29: traf2_out_20_3_2145 (protein)
chain: EELEKELKKELEKALKILEEAAKLADKETAKKLKELAKKLEESKELSYSDQLVVVSEVRREVLELADKAKAAGKEELAKKLEEAAEALNRAANLLYKIIE

Biological target: T1, TRAF2, Q12933
T1 chain: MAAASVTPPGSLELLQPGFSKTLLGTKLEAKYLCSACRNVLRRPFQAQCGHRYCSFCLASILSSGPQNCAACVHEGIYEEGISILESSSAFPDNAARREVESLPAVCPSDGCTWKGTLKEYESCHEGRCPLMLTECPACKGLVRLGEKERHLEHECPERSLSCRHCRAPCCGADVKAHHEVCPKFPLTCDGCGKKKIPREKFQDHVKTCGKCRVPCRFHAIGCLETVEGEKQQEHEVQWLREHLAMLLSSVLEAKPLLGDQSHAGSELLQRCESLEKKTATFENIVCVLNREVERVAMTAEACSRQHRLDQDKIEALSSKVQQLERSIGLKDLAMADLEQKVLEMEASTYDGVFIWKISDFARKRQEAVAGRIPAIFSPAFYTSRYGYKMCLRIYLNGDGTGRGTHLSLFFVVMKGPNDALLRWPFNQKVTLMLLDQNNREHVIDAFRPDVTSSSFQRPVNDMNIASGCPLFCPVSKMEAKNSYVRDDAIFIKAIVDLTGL
Test: median log2 fold change of GCK-ALFA target abundance (FLAG IP / Myc IP barcode read proportion) (log2 ratio); each designed protein is fused to an ALFA-tag nanobody in HEK293 cells to bring the named protein to FLAG-tagged glucokinase (GCK); Myc marks an untargeted standard; higher = target protein stabilised (more abundant)
Details: target protein: 3xFLAG-MCP-GCK-ALFA reporter; HEK293 landing pad (RPLP)
Procedure, shortened: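 The readout is target abundance, the per-binder median log2 ratio of FLAG to Myc barcode read proportions. It came from HEK293 landing-pad cells carrying a recombined ALFA-nanobody-fused binder library, induced with 2 μg mL^−1 doxycycline and transfected with a plasmid for a FLAG-tagged target and a Myc-tagged standard. After 48 h, lysates were immunoprecipitated with anti-FLAG and anti-Myc, and circular RNA barcodes were reverse transcribed, amplified and sequenced. Each barcode needed a proportion of at least 10^−7 in both replicates and each binder at least 3 barcodes per replicate, a pseudocount of 10^−6 was added, and the replicates were pooled.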

Binder | median log2 fold change
B1 | 0.111
B2 | 0.293
B3 | 0.0394
B4 | 0.197
B5 | 0.265
B6 | 0.274
B7 | -0.0878
B8 | 0.315
B9 | -0.553
B10 | 0.242
B11 | 0.323
B12 | 0.474
B13 | 0.165
B14 | 0.105
B15 | 0.334
B16 | -0.156
B17 | 0.333
B18 | 0.275
B19 | 0.00164
B20 | 0.134
B21 | 0.256
B22 | 0.506
B23 | 0.0798
B24 | 0.115
B25 | -0.477
B26 | -0.966
B27 | 0.216
B28 | 0.0232
B29 | 0.132

Reference: the supplement of paper PMC12632987
